Measurements from the RNAGym collection of RNA variant scans (doi:10.7554/elife.90254).
Read counts are not given, so values of variants with three or more changes are uncertain.

B1: LINE1-mini (parent)
chain: GGCAGAGCUCAACACAGCGUGGCAAAGUGGCUGUGGCUAGACUGCC

Variants of: B1
Test: self-cleavage, relative activity (ratio to wild type); higher = more cleavage; in vitro, sequencing; the parent is a self-cleaving ribozyme

Variant | self-cleavage
G1U A6U A12G | 0.04
G1U A6G G7C A12G | 0
G1C G5U C18U C23G A39G A41U | 0
G1C U34A A41C C42U | 0.01
G1U A12U C15A A25C C31G | 0.04
G1C G22U U34G | 0.01
G1C U9C C10U G29U | 0.01
G1C G17U U34G | 0.03
G1C G19A G30C C31A | 0.06
G1C G35U C42U | 0.08
G1U A6U C18U | 0.08
G1C G27C C37A A41G | 0.02
G1C U20G A25U U38G | 0
G1U A6C C10A A11G C13G G29U | 0.01
G1C G17A G21U G27U | 0.03
G1U A39U G40A C42G U43A | 0.01
G1C G17U A26U U32A C37U | 0.01
G1C G7U C10G U20C G21A A25U U38C | 0.01
G1U A12G U20A G22C | 0.02
G1U A6G G7U C13G G21C G22A C31A | 0.03
G1C U20C C37U A41G | 0.01

Variant | self-cleavage
G1U A4G A12U C15A C37A C42G | 0.03
G1U A11C G29U G30A | 0.01
G1U A4G A16C | 0.04
G1C G5U G33U C37U C45A | 0.01
G1C G5C U28A G40A | 0.01
G1C G7C C15A A26C G27A C45G | 0.01
G1U A14U C18A | 0.11
G1U A4C A12C C13A A16U C18G U43A G44U | 0.01
G1U A24C A41G G44A | 0.03
G1U A16U U34G C37A | 0.02
G1U A4G C10G C15G | 0
G1C G2U C18G C31A G36C | 0.03
G1C G2C C13G A14U C23U | 0.06
G1C G7U A11G G29U U38A | 0.01
G1C G7A G30U | 0.01
G1U A14G C23U | 0.14
G1C G27U G33A G35A G40A C45A | 0.02
G1C G2C A14U U32C | 0.01
G1C G33C G35C C46A | 0.01
G1U A6G A41G | 0.07
G1C G2U C3A G29A | 0.07

Variant | self-cleavage
G1C G5U G36U | 0
G1U A4U G5C C10A A14C | 0.03
G1C U20G A25U | 0.08
G1C U28C C46G | 0.49
G1U A4U A16G G21A U34G C45G C46A | 0.01
G1U A12G G22C | 0.02
G1C U9C A14G | 0
G1U A11U U20C | 0.03
G1C U9C C13G A24C A41U | 0.02
G1C U9C G19C U20A U38C | 0.05
G1U A6U C23G U28G G33C | 0.04
G1U A25C G40C | 0.07
G1U A6G A11U C18A G44U | 0.02
G1U A24U U28C | 0.2
G1C G19C C23A | 0.01
G1C U43G C45U | 0.01
G1U A6G A11U C23U A25C | 0
G1U A11G A25C | 0.01
G1C G27C U32C A41C U43C | 0.01
G1U A11C C18U G29U C37G | 0
G1U C3A G5A U9A | 1.87

Variant | self-cleavage
G1U A12C A24G G33C | 0
G1C G17U U32C | 0.03
G1U A26C C37A | 0.04
G1C G30U U32C U34C | 0
G1C G17U C37G | 0.02
G1U A25C C31A | 0.03
G1U A24G C37A | 0.1
G1U A4G A11C G36A C46U | 0.03
G1C G17A A24U A26C C46A | 0.07
G1U A11C C13U A16C | 0.01
G1U A4G G7C C31A G35C | 0.09
G1U A6G C18U | 0
G1U A16C C23U C46A | 0.02
G1C G2A G19A C45U | 0.39
G1C G17A G27A U28A | 0
G1C U9A C10G A16C C23G U34G | 0
G1U A16U A24G C46A | 0.02
G1C G33A C42G | 0.02
G1C G33A C42A | 0
G1C G36U A39G C42U | 0
